From PubChem BioAssay AID270 (DTP/NCI, 2004)
Inconclusive results are not listed. Certain results were filed several times, with different values. This list holds those alone. There may be further records. The values listed for one entry repeat one measurement in other runs, samples, wells, individuals or studies. *1 amine or outer side, *2 acyl side, *3 side chain or, on linkers, in order; H or OH if unused. Where a SMILES comes first, the peptide text is derived from it. Bridges are numbered along the chain shown (N, C = ends). Roman numbers before positions name the chains, in order. [ ]: non-standard residue; d: D form. Actinocin(9to1) = Cc1c2oc3c(C)ccc(C(=O)[*:1])c3nc-2c(C(=O)[*:2])c(N)c1=O; aThr = C[C@H](O)[C@H](N)C(=O)O; NMeV = CN[C@H](C(=O)O)C(C)C; Sar = CNCC(=O)O

Tested on: BDF1 mice, s.c. Lewis lung carcinoma, T/C %
Experiment: NCI In Vivo Anticancer Drug Screen. Data for tumor model Lewis Lung Carcinoma (subcutaneous) in B6D2F1 (BDF1) mice
Method: The antitumor activity of compounds was measured in mice bearing transplantable tumors. Survival or tumor size were measured and the results are expressed as the measurement made in the treated group (T) divided by the measurement made in the vehicle treated control group (C). The tumor model used in this assay is Lewis Lung Carcinoma (subcutaneous) in B6D2F1 (BDF1) mice

[1] = endpoint: mean tumor weight, dose: 75.0 mg/kg/injection, schedule: Q01DX011 (ip), vehicle: saline, higher = larger tumour
[2] = endpoint: mean tumor weight, dose: 500.0 mg/kg/injection, schedule: Q01DX011 (sc), vehicle: steriod suspending solution, higher = larger tumour

**Q.** `CO[C@@H]1[C@@H](OC2OC(C)C(OC3CC(C)(O)C(OC(=O)CC(C)C)C(C)O3)C(N(C)C)C2O)[C@@H](CC=O)C[C@@H](C)C(=O)/C=C/C2O[C@H]2C[C@@H](C)OC(=O)C[C@H]1OC(C)=O` (stereo partly drawn) was tested. Which T/C [1] did it give?
**A.** 49 % of control and 81 % of control

**Q.** For `N=C(N)Sc1cc(O)ccc1O`, which T/C (endpoint: median survival time, dose: 75.0 mg/kg/injection, schedule: Q01DX009 (ip), vehicle: saline, higher = longer survival) is on record?
**A.** 100 % of control and 150 % of control

**Q.** And the T/C (endpoint: median survival time, dose: 150.0 mg/kg/injection, schedule: Q01DX009 (ip), vehicle: saline, higher = longer survival)?
**A.** 103 % of control and 150 % of control

**Q.** With `C[C@]12CC[C@@H]3c4ccccc4CC[C@H]3[C@@H]1CC[C@@H]2O` as the compound, how does the T/C [2] read?
**A.** 26 % of control and 78 % of control

**Q.** With `Cc1c2oc3c(C)ccc(C(=O)N[C@@H]4C(=O)N[C@H](C(C)C)C(=O)N5CCC[C@H]5C(=O)N(C)CC(=O)N(C)[C@@H](C(C)C)C(=O)O[C@H]4C)c3nc-2c(C(=O)N[C@@H]2C(=O)N[C@H](C(C)C)C(=O)N3CCC[C@H]3C(=O)N(C)CC(=O)N(C)[C@@H](C(C)C)C(=O)O[C@H]2C)c(N)c1=O` (I: [aThr][dV]P[Sar][NMeV] / II: [aThr][dV]P[Sar][NMeV]; ester I:1-I:C, II:1-II:C; linker I:N-II:N via Actinocin(9to1)) as the compound, how does the T/C (endpoint: median survival time, dose: 12.0 micrograms/kg/injection, schedule: Q01DX009 (ip), vehicle: saline, higher = longer survival) read?
**A.** 100 % of control, 103 % of control, 155 % of control

**Q.** For `CC1CN1P(=S)(N1CC1C)N1CC1C` (stereo not drawn), which T/C (endpoint: mean tumor weight, dose: 35.0 mg/kg/injection, schedule: Q01DX011 (ip), vehicle: carboxymethylcellulose (CMC), higher = larger tumour) is on record?
**A.** 34 % of control and 61 % of control

**Q.** With `[Cl][Ni+2][Cl].[NH-]CCN1CC1` as the compound, how does the T/C (endpoint: median survival time, dose: 3.12 mg/kg/injection, schedule: Q01DX009 (ip), vehicle: saline, higher = longer survival) read?
**A.** 104 % of control and 187 % of control

**Q.** What about the T/C (endpoint: median survival time, dose: 6.25 mg/kg/injection, schedule: Q01DX009 (ip), vehicle: saline, higher = longer survival) of the same compound?
**A.** 106 % of control and 186 % of control

**Q.** For `C1CCNC1`, which T/C (endpoint: mean tumor weight, dose: 12.5 mg/kg/injection, schedule: Q01DX011 (ip), vehicle: saline, higher = larger tumour) is on record?
**A.** 58 % of control and 107 % of control

**Q.** How did the T/C (endpoint: mean tumor weight, dose: 5.0 mg/kg/injection, schedule: Q01DX011 (ip), vehicle: saline, higher = larger tumour) turn out when `N=[N+]=CC(=O)OCC(N)C(=O)O` (stereo not drawn) was run?
**A.** 60 % of control and 100 % of control

**Q.** For `C[C@@H]1C[C@@H]([C@H](O)CC2CC(=O)NC(=O)C2)C(=O)[C@@H](C)C1`, which T/C (endpoint: mean tumor weight, dose: 7.5 mg/kg/injection, schedule: Q01DX011 (ip), vehicle: carboxymethylcellulose (CMC), higher = larger tumour) is on record?
**A.** 75 % of control and 102 % of control

**Q.** `CNS(=O)(=O)c1ncnc2nc[nH]c12` was tested. Which T/C (endpoint: mean tumor weight, dose: 75.0 mg/kg/injection, schedule: Q01DX011 (ip), vehicle: carboxymethylcellulose (CMC), higher = larger tumour) did it give?
**A.** 25 % of control and 62 % of control

**Q.** With `CS(=O)(=O)OCCCCCCCCCOS(C)(=O)=O` as the compound, how does the T/C (endpoint: mean tumor weight, dose: 50.0 mg/kg/injection, schedule: Q01DX011 (ip), vehicle: carboxymethylcellulose (CMC), higher = larger tumour) read?
**A.** 31 % of control and 69 % of control

**Q.** `C1CN1c1nc(N2CC2)nc(N2CC2)n1` was tested. Which T/C (endpoint: median survival time, dose: 1.0 mg/kg/injection, schedule: Q08DX002 (ip), vehicle: saline, higher = longer survival) did it give?
**A.** 100 % of control, 106 % of control, 170 % of control

**Q.** How did the T/C (endpoint: median survival time, dose: 2.0 mg/kg/injection, schedule: Q01DX009 (ip), vehicle: saline, higher = longer survival) turn out when `N[C@@H](Cc1ccc(N(CCCl)CCCl)cc1)C(=O)O` was run?
**A.** 123 % of control and 168 % of control

**Q.** Which T/C (endpoint: mean tumor weight, dose: 25.0 mg/kg/injection, schedule: Q01DX011 (ip), vehicle: carboxymethylcellulose (CMC), higher = larger tumour) does the source give for `CS(=O)(=O)OCCCCOS(C)(=O)=O` here?
**A.** 61 % of control and 89 % of control

**Q.** For `CCCCCC(=O)O[C@]1(C(C)=O)CC[C@H]2[C@@H]3CCC4=CC(=O)CC[C@]4(C)[C@H]3CC[C@@]21C`, which T/C (endpoint: mean tumor weight, dose: 250.0 mg/kg/injection, schedule: Q01DX011 (sc), vehicle: steriod suspending solution, higher = larger tumour) is on record?
**A.** 77 % of control and 117 % of control

**Q.** And the T/C [2]?
**A.** 60 % of control and 110 % of control

**Q.** What does the source list for `S=c1nc[nH]c2nc[nH]c12`?
**A.** T/C (endpoint: median tumor weight (est.), dose: 10.0 mg/kg/injection, schedule: Q01DX011 (ip), vehicle: alkali diluted with saline, higher = larger tumour): 82 % of control and 153 % of control; T/C (endpoint: median tumor weight (est.), dose: 20.0 mg/kg/injection, schedule: Q01DX011 (ip), vehicle: alkali diluted with saline, higher = larger tumour): 73 % of control, 82 % of control, 113 % of control; T/C (endpoint: median tumor weight (est.), dose: 40.0 mg/kg/injection, schedule: Q01DX011 (ip), vehicle: alkali diluted with saline, higher = larger tumour): 60 % of control, 79 % of control, 104 % of control

**Q.** For `Nc1ccc(O)cc1`, which T/C [1] is on record?
**A.** 63 % of control and 115 % of control

**Q.** And the T/C (endpoint: mean tumor weight, dose: 150.0 mg/kg/injection, schedule: Q01DX011 (ip), vehicle: saline, higher = larger tumour)?
**A.** 36 % of control and 68 % of control

**Q.** How did the T/C (endpoint: median survival time, dose: 1.0 mg/kg/injection, schedule: Q01DX009 (ip), vehicle: saline with Tween-80, higher = longer survival) turn out when `CC(C)(C)c1ccc(CN2CCN(C(c3ccccc3)c3ccc(Cl)cc3)CC2)cc1` (stereo not drawn) was run?
**A.** 106 % of control and 169 % of control

**Q.** What about the T/C (endpoint: median survival time, dose: 4.0 mg/kg/injection, schedule: Q01DX009 (ip), vehicle: saline with Tween-80, higher = longer survival) of the same compound?
**A.** 112 % of control, 163 % of control, 164 % of control

**Q.** Which results are given for `C[C@@H]1CC[C@@]2(NC1)O[C@H]1C[C@H]3[C@@H]4CC=C5C[C@@H](O)CC[C@]5(C)[C@H]4CC[C@]3(C)[C@H]1[C@@H]2C`?
**A.** T/C (endpoint: mean tumor weight, dose: 11.1 mg/kg/injection, schedule: Q01DX011 (ip), vehicle: carboxymethylcellulose (CMC), higher = larger tumour): 58 % of control, 66 % of control, 87 % of control; T/C (endpoint: mean tumor weight, dose: 27.0 mg/kg/injection, schedule: Q01DX011 (sc), vehicle: steriod suspending solution, higher = larger tumour): 53 % of control and 167 % of control

**Q.** For `NC(=S)N/N=C/c1nccc2ccccc12`, which T/C (endpoint: median survival time, dose: 75.0 mg/kg/injection, schedule: Q01DX009 (ip), vehicle: saline with Tween-80, higher = longer survival) is on record?
**A.** 111 % of control and 152 % of control
